Measurements reported in a compilation of properties of binary mixtures (doi:10.1016/j.molliq.2020.112481).
The densities may have been worked out from excess volumes.

Test: xn = mol fraction of the nth substance listed
Conditions: 100 kPa

OCCO + CCCC[n+]1ccn(C)c1.O=S(=O)([O-])C(F)(F)F
mass density (313.15 K, x2 = 0): 1099.1 kg/m3 | mass density (323.15 K, x2 = 0): 1092 kg/m3

CCCC[n+]1ccn(C)c1.O=S(=O)([O-])C(F)(F)F + OCCO
mass density (298.15 K, x1 = 0.1936): 1195.2 kg/m3 | mass density (298.15 K, x1 = 0.2985): 1219.5 kg/m3 | mass density (298.15 K, x1 = 0.3912): 1234.9 kg/m3 | mass density (298.15 K, x1 = 0.4999): 1249.2 kg/m3 | mass density (298.15 K, x1 = 0.6055): 1260.9 kg/m3 | mass density (298.15 K, x1 = 0.7966): 1280 kg/m3 | mass density (298.15 K, x1 = 0.9035): 1289 kg/m3 | mass density (298.15 K, x1 = 1): 1297.5 kg/m3 | mass density (303.15 K, x1 = 0.1936): 1191.8 kg/m3 | mass density (303.15 K, x1 = 0.2985): 1216 kg/m3 | mass density (303.15 K, x1 = 0.3912): 1231.3 kg/m3 | mass density (303.15 K, x1 = 0.6055): 1257.2 kg/m3 | mass density (303.15 K, x1 = 0.7966): 1276.2 kg/m3 | mass density (303.15 K, x1 = 0.9035): 1285.2 kg/m3 | mass density (303.15 K, x1 = 1): 1293.5 kg/m3 | mass density (308.15 K, x1 = 0.0926): 1153.6 kg/m3 | mass density (308.15 K, x1 = 0.1936): 1188.5 kg/m3 | mass density (308.15 K, x1 = 0.3912): 1227.8 kg/m3 | mass density (308.15 K, x1 = 0.6055): 1253.5 kg/m3 | mass density (308.15 K, x1 = 0.9035): 1281.4 kg/m3 | mass density (308.15 K, x1 = 1): 1289.5 kg/m3 | mass density (313.15 K, x1 = 0.0926): 1150.3 kg/m3 | mass density (313.15 K, x1 = 0.1936): 1185 kg/m3 | mass density (313.15 K, x1 = 0.3912): 1224.2 kg/m3 | mass density (313.15 K, x1 = 0.6055): 1249.8 kg/m3 | mass density (313.15 K, x1 = 0.7966): 1268.6 kg/m3 | mass density (313.15 K, x1 = 0.9035): 1277.6 kg/m3 | mass density (313.15 K, x1 = 1): 1285.5 kg/m3 | mass density (318.15 K, x1 = 0.1936): 1181.6 kg/m3 | mass density (318.15 K, x1 = 0.2985): 1205.2 kg/m3 | mass density (318.15 K, x1 = 0.3912): 1220.6 kg/m3 | mass density (318.15 K, x1 = 0.6055): 1246.1 kg/m3 | mass density (318.15 K, x1 = 0.6922): 1254.8 kg/m3 | mass density (318.15 K, x1 = 0.7966): 1264.8 kg/m3 | mass density (318.15 K, x1 = 0.9035): 1273.8 kg/m3 | mass density (318.15 K, x1 = 1): 1281.5 kg/m3 | mass density (323.15 K, x1 = 0.0926): 1143.6 kg/m3 | mass density (323.15 K, x1 = 0.2985): 1201.7 kg/m3 | mass density (323.15 K, x1 = 0.4999): 1230.8 kg/m3 | mass density (323.15 K, x1 = 0.6055): 1242.4 kg/m3 | mass density (323.15 K, x1 = 0.6922): 1251 kg/m3 | mass density (323.15 K, x1 = 0.9035): 1270 kg/m3 | mass density (323.15 K, x1 = 1): 1277.5 kg/m3
